Laboratory results as given in the supplement of paper PMC8728848.
Some of the results follow.

Tests used:
Experiment in all cases: glycan array binding signal (z-score within array); higher = stronger binding
Conditions in all cases: glycan notation: IUPAC condensed, linker removed
[1] = biological target: Neu5Ac(a2-3)Gal(b1-3)GalNAc
Method in brief: (§1)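 Columns mapping to the same glycan were averaged after glycan names were converted to IUPAC-condensed notation. The data come from 3228 arrays in the Consortium for Functional Glycomics database, limited to those with an available protein sequence. Binding is reported as a within-array Z-score averaged across arrays of one protein sequence and across linkers.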

[2] = biological target: Neu5Ac(a2-3)Gal(b1-3)GalNAc(b1-3)Gal(a1-4)Gal(b1-4)Glc
Method in brief: as §1

[3] = biological target: Neu5Ac(a2-3)Gal(b1-3)GalNAc(b1-4)[Neu5Ac(a2-3)]Gal(b1-4)Glc
Method in brief: as §1

[4] = biological target: Neu5Ac(a2-3)Gal(b1-3)GalNAc(b1-4)[Neu5Ac(a2-8)Neu5Ac(a2-3)]Gal(b1-4)Glc
Method in brief: as §1

[5] = biological target: Neu5Ac(a2-3)Gal(b1-3)GalNAc6S
Method in brief: as §1

[6] = biological target: Neu5Ac(a2-3)Gal(b1-3)GlcNAc
Method in brief: as §1

[7] = biological target: Neu5Ac(a2-3)Gal(b1-3)GlcNAc(b1-2)Man
Method in brief: as §1

[8] = biological target: Neu5Ac(a2-3)Gal(b1-3)GlcNAc(b1-2)Man(a1-3)[GlcNAc(b1-4)][Neu5Ac(a2-3)Gal(b1-3)GlcNAc(b1-2)Man(a1-6)]Man(b1-4)GlcNAc(b1-4)GlcNAc
Method in brief: as §1

[9] = biological target: Neu5Ac(a2-3)Gal(b1-3)GlcNAc(b1-2)Man(a1-3)[Neu5Ac(a2-3)Gal(b1-3)GlcNAc(b1-2)Man(a1-6)]Man(b1-4)GlcNAc(b1-4)GlcNAc
Method in brief: as §1

[10] = biological target: Neu5Ac(a2-3)Gal(b1-3)GlcNAc(b1-3)Gal(b1-3)GlcNAc
Method in brief: as §1

[11] = biological target: Neu5Ac(a2-3)Gal(b1-3)GlcNAc(b1-3)Gal(b1-4)GlcNAc
Method in brief: as §1

[12] = biological target: Neu5Ac(a2-3)Gal(b1-3)GlcNAc(b1-3)GalNAc
Method in brief: as §1

[13] = biological target: Neu5Ac(a2-3)Gal(b1-3)GlcNAc(b1-4)Gal(b1-4)Glc
Method in brief: as §1

[14] = biological target: Neu5Ac(a2-3)Gal(b1-3)GlcNAc(b1-6)GalNAc
Method in brief: as §1

[15] = biological target: Neu5Ac(a2-3)Gal(b1-3)GlcNAc6S
Method in brief: as §1

[16] = biological target: Neu5Ac(a2-3)Gal(b1-3)[Fuc(a1-4)]GlcNAc
Method in brief: as §1

[17] = biological target: Neu5Ac(a2-3)Gal(b1-3)[Fuc(a1-4)]GlcNAc(b1-3)Gal(b1-3)[Fuc(a1-4)]GlcNAc
Method in brief: as §1

[18] = biological target: Neu5Ac(a2-3)Gal(b1-3)[Fuc(a1-4)]GlcNAc(b1-3)Gal(b1-4)[Fuc(a1-3)]GlcNAc
Method in brief: as §1

[19] = biological target: Neu5Ac(a2-3)Gal(b1-3)[GlcNAc(b1-6)]GalNAc
Method in brief: as §1

[20] = biological target: Neu5Ac(a2-3)Gal(b1-3)[Neu5Ac(a2-6)]GalNAc
Method in brief: as §1

[21] = biological target: Neu5Ac(a2-3)Gal(b1-3)[Neu5Ac(a2-6)]GlcNAc(b1-3)[Fuc(a1-3)[Gal(b1-4)]GlcNAc(b1-6)]Gal(b1-4)Glc
Method in brief: as §1

[22] = biological target: Neu5Ac(a2-3)Gal(b1-3)]Neu5Ac(a2-3)Gal(b1-4)]GlcNAc
Method in brief: as §1

[23] = biological target: Neu5Ac(a2-3)Gal(b1-4)Glc
Method in brief: as §1

[24] = biological target: Neu5Ac(a2-3)Gal(b1-4)GlcNAc
Method in brief: as §1

[25] = biological target: Neu5Ac(a2-3)Gal(b1-4)GlcNAc(b1-2)Man
Method in brief: as §1

[26] = biological target: Neu5Ac(a2-3)Gal(b1-4)GlcNAc(b1-2)Man(a1-3)[GlcNAc(b1-4)][Neu5Ac(a2-3)Gal(b1-4)GlcNAc(b1-2)Man(a1-6)]Man(b1-4)GlcNAc(b1-4)GlcNAc
Method in brief: as §1

[27] = biological target: Neu5Ac(a2-3)Gal(b1-4)GlcNAc(b1-2)Man(a1-3)[Neu5Ac(a2-3)Gal(b1-4)GlcNAc(b1-2)Man(a1-6)]Man(b1-4)GlcNAc(b1-4)GlcNAc
Method in brief: as §1

[28] = biological target: Neu5Ac(a2-3)Gal(b1-4)GlcNAc(b1-2)Man(a1-3)[Neu5Ac(a2-3)Gal(b1-4)GlcNAc(b1-2)Man(a1-6)]Man(b1-4)GlcNAc(b1-4)[Fuc(a1-6)]GlcNAc
Method in brief: as §1

[29] = biological target: Neu5Ac(a2-3)Gal(b1-4)GlcNAc(b1-2)Man(a1-3)[Neu5Ac(a2-6)Gal(b1-4)GlcNAc(b1-2)Man(a1-6)]Man(b1-4)GlcNAc(b1-4)GlcNAc
Method in brief: as §1

[30] = biological target: Neu5Ac(a2-3)Gal(b1-4)GlcNAc(b1-2)[Neu5Ac(a2-3)Gal(b1-4)GlcNAc(b1-4)]Man(a1-3)[GlcNAc(b1-4)][Neu5Ac(a2-3)Gal(b1-4)GlcNAc(b1-2)[Neu5Ac(a2-3)Gal(b1-4)GlcNAc(b1-6)]Man(a1-6)]Man(b1-4)GlcNAc(b1-4)GlcNAc
Method in brief: as §1

[31] = biological target: Neu5Ac(a2-3)Gal(b1-4)GlcNAc(b1-2)[Neu5Ac(a2-3)Gal(b1-4)GlcNAc(b1-4)]Man(a1-3)[GlcNAc(b1-4)][Neu5Ac(a2-3)Gal(b1-4)GlcNAc(b1-4)Man(a1-6)]Man(b1-4)GlcNAc(b1-4)GlcNAc
Method in brief: as §1

[32] = biological target: Neu5Ac(a2-3)Gal(b1-4)GlcNAc(b1-2)[Neu5Ac(a2-3)Gal(b1-4)GlcNAc(b1-6)]Man(a1-6)[Neu5Ac(a2-3)Gal(b1-4)GlcNAc(b1-2)Man(a1-3)]Man(b1-4)GlcNAc(b1-4)GlcNAc
Method in brief: as §1

[33] = biological target: Neu5Ac(a2-3)Gal(b1-4)GlcNAc(b1-2)[Neu5Ac(a2-3)Gal(b1-4)GlcNAc(b1-6)]Man(a1-6)[Neu5Ac(a2-3)Gal(b1-4)GlcNAc(b1-2)Man(a1-3)][GlcNAc(b1-4)]Man(b1-4)GlcNAc(b1-4)GlcNAc
Method in brief: as §1

[34] = biological target: Neu5Ac(a2-3)Gal(b1-4)GlcNAc(b1-3)Gal
Method in brief: as §1

[35] = biological target: Neu5Ac(a2-3)Gal(b1-4)GlcNAc(b1-3)Gal(b1-3)GlcNAc
Method in brief: as §1

[36] = biological target: Neu5Ac(a2-3)Gal(b1-4)GlcNAc(b1-3)Gal(b1-4)GlcNAc
Method in brief: as §1

[37] = biological target: Neu5Ac(a2-3)Gal(b1-4)GlcNAc(b1-3)Gal(b1-4)GlcNAc(b1-2)Man(a1-3)[Neu5Ac(a2-3)Gal(b1-4)GlcNAc(b1-3)Gal(b1-4)GlcNAc(b1-2)Man(a1-6)]Man(b1-4)GlcNAc(b1-4)GlcNAc
Method in brief: as §1

B1: Cohesin-hDCIR (Homo sapiens) (protein)
chain: LDDLDAVRIKVDTVNAKPGDTVRIPVRFSGIPSKGIANCDFVYSYDPNVLEIIEIEPGDIIVDPNPDKSFDTAVYPDRKIIVFLFAEDSGTGAYAITKDGVFATIVAKVKEGAPNGLSVIKFVEVGGFANNDLVEQKTQFFDGGANVGDTTEPATPTTPVTTPTTTDDLDAASQKYSQLLEKKTTKELVHTTLECVKKNMPVEETAWSCCPKNWKSFSSNCYFISTESASWQDSEKDCARMEAHLLVINTQEEQDFIFQNLQEESAYFVGLSDPEGQRHWQWVDQTPYNESSTFWHPREPSDPNERCVVLNFRKSPKRWGWNDVNCLGPQRSVCEMMKIHLHHHHHH
[1]
  glycan array binding signal (z-score): -0.622
[2]
  glycan array binding signal (z-score): -0.587
[3]
  glycan array binding signal (z-score): -0.499
[4]
  glycan array binding signal (z-score): -0.554
[5]
  glycan array binding signal (z-score): 1.41
[6]
  glycan array binding signal (z-score): -0.39
[7]
  glycan array binding signal (z-score): -0.373
[8]
  glycan array binding signal (z-score): -0.577
[9]
  glycan array binding signal (z-score): -0.312
[10]
  glycan array binding signal (z-score): -0.628
[11]
  glycan array binding signal (z-score): -0.583
[12]
  glycan array binding signal (z-score): 0.074
[13]
  glycan array binding signal (z-score): -0.635
[14]
  glycan array binding signal (z-score): 1.94
[15]
  glycan array binding signal (z-score): -0.267
[16]
  glycan array binding signal (z-score): 0.198
[17]
  glycan array binding signal (z-score): -0.526
[18]
  glycan array binding signal (z-score): -0.254
[19]
  glycan array binding signal (z-score): 0.092
[20]
  glycan array binding signal (z-score): -0.352
[21]
  glycan array binding signal (z-score): -0.629
[22]
  glycan array binding signal (z-score): 0.083
[23]
  glycan array binding signal (z-score): -0.005
[24]
  glycan array binding signal (z-score): 0.035
[25]
  glycan array binding signal (z-score): 0.375
[26]
  glycan array binding signal (z-score): -0.66
[27]
  glycan array binding signal (z-score): -0.589
[28]
  glycan array binding signal (z-score): -0.586
[29]
  glycan array binding signal (z-score): -0.547
[30]
  glycan array binding signal (z-score): -0.508
[31]
  glycan array binding signal (z-score): -0.53
[32]
  glycan array binding signal (z-score): -0.511
[33]
  glycan array binding signal (z-score): -0.467
[34]
  glycan array binding signal (z-score): -0.585
[35]
  glycan array binding signal (z-score): -0.657
[36]
  glycan array binding signal (z-score): -0.516
[37]
  glycan array binding signal (z-score): -0.438
